{"source": "the supplement of paper PMC10126150", "note": "Sequences with one replicate were seen in a single cluster, so their values are uncertain.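 Note: ATP exposure 15 min at 22 °C before imaging.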", "data": [{"tested_on": "ATP", "assay": "switch fluorescence ratio, 500 uM ATP over buffer (Cy3 cluster intensity, sum of 5 cycles each) (fold (ratio)); higher = stronger signal-on switching upon ATP binding; sequences stand for … in TCGTCGGCAGCGTCAGATGTGTATAAGAGACAGTTTTTTTTTTTTTTTTTTTTTTTTT…TC", "conditions": "aptamer strand: ATP DNA aptamer (quencher-CACCTGGGGGAGTATTGCGGAGGAAGG + anchor), 100 nM annealed; ATP concentration: 500 uM; one replicate", "outline": "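For every switch-domain sequence, the fluorescence ratio is the mean of per-cluster values, each being summed target-cycle Cy3 intensity over summed buffer-cycle Cy3 intensity. Clusters outside 100-1000 RFU were excluded. On a modified Illumina MiSeq flow-cell, the Cy3-labelled switching-strand clusters were annealed to 100 nM quencher-labelled ATP aptamer, imaged in selection buffer and then after 15 min with 500 uM ATP at 22 °C. Five such cycles were run, with NaOH stripping and re-annealing between them.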", "values": [{"sequence": "GCTACTAGTC", "switch fluorescence ratio": 1}, {"sequence": "CGCAGGGTGA", "switch fluorescence ratio": 1.02}, {"sequence": "CAGTCCGAGG", "switch fluorescence ratio": 0.962}, {"sequence": "TTAAGAAGGA", "switch fluorescence ratio": 1}, {"sequence": "ATTCTCAGCG", "switch fluorescence ratio": 1.01}, {"sequence": "CAAGATGCCC", "switch fluorescence ratio": 0.982}, {"sequence": "TCGTTATTCA", "switch fluorescence ratio": 1.01}, {"sequence": "ACAGTAAAAG", "switch fluorescence ratio": 1.25}, {"sequence": "ATGAAGAAGG", "switch fluorescence ratio": 0.998}, {"sequence": "GCTAGACCCG", "switch fluorescence ratio": 0.999}, {"sequence": "CCAAAAATCT", "switch fluorescence ratio": 1.01}, {"sequence": "TTGGTGTTT", "switch fluorescence ratio": 1.02}, {"sequence": "GCGTCAGACT", "switch fluorescence ratio": 1.04}, {"sequence": "ACCAAGTAGT", "switch fluorescence ratio": 1.02}, {"sequence": "GTAGTTAAAT", "switch fluorescence ratio": 0.98}, {"sequence": "TCCGATTATA", "switch fluorescence ratio": 1.04}, {"sequence": "AATGCGGTTG", "switch fluorescence ratio": 1.01}, {"sequence": "CACTGATCTG", "switch fluorescence ratio": 0.96}, {"sequence": "GGTGACATTT", "switch fluorescence ratio": 1.01}, {"sequence": "ACAGTTTAGT", "switch fluorescence ratio": 1.02}, {"sequence": "GAGGCCCTGC", "switch fluorescence ratio": 0.935}, {"sequence": "CTGGTTAATA", "switch fluorescence ratio": 1}, {"sequence": "AGTAGACATT", "switch fluorescence ratio": 0.992}, {"sequence": "CATCTCCGGG", "switch fluorescence ratio": 1.12}, {"sequence": "CCGCTTTTAG", "switch fluorescence ratio": 3.3}, {"sequence": "TGATTTGCT", "switch fluorescence ratio": 1.01}, {"sequence": "CGAAGTTACC", "switch fluorescence ratio": 1.17}, {"sequence": "AGAGGACTTG", "switch fluorescence ratio": 1.05}, {"sequence": "CGATTATAAT", "switch fluorescence ratio": 0.975}, {"sequence": "GGCCAAACAG", "switch fluorescence ratio": 1.01}, {"sequence": "GGTAATGAAT", "switch fluorescence ratio": 1.01}, {"sequence": "TTAGATCGTG", "switch fluorescence ratio": 1.04}, {"sequence": "GAGCCAAGG", "switch fluorescence ratio": 1.02}, {"sequence": "TTAGAAGGGT", "switch fluorescence ratio": 0.985}, {"sequence": "CCTAATAGAG", "switch fluorescence ratio": 0.969}, {"sequence": "CCCACGACGT", "switch fluorescence ratio": 1.05}, {"sequence": "ATAGAGAGGC", "switch fluorescence ratio": 0.909}, {"sequence": "CAGACCTCCG", "switch fluorescence ratio": 1.04}, {"sequence": "CATCAAAATT", "switch fluorescence ratio": 1}, {"sequence": "CATTGCACCC", "switch fluorescence ratio": 1.07}, {"sequence": "ACCGGGTCCA", "switch fluorescence ratio": 0.99}, {"sequence": "TAGTGCTACT", "switch fluorescence ratio": 1.02}, {"sequence": "ATGTGAAACT", "switch fluorescence ratio": 1.02}, {"sequence": "CTCGCAGAGT", "switch fluorescence ratio": 1.02}, {"sequence": "GCGGGAGCTG", "switch fluorescence ratio": 1}, {"sequence": "ATTGGAAG", "switch fluorescence ratio": 0.986}, {"sequence": "TAACTTTAGG", "switch fluorescence ratio": 0.992}, {"sequence": "CAAATCCGAG", "switch fluorescence ratio": 1.07}, {"sequence": "GGGAATATGT", "switch fluorescence ratio": 0.971}, {"sequence": "ATTTTACTG", "switch fluorescence ratio": 1.04}, {"sequence": "GGGGTTACTC", "switch fluorescence ratio": 0.978}, {"sequence": "TAGTTAAGAT", "switch fluorescence ratio": 1.02}, {"sequence": "TATGTTTTCG", "switch fluorescence ratio": 0.973}, {"sequence": "GGGAACTAAG", "switch fluorescence ratio": 0.992}, {"sequence": "CTGCATCAAT", "switch fluorescence ratio": 1.24}, {"sequence": "CGAGTGAGAG", "switch fluorescence ratio": 0.997}, {"sequence": "CGGTTACTCT", "switch fluorescence ratio": 1.05}, {"sequence": "CGGCACGGCG", "switch fluorescence ratio": 0.989}, {"sequence": "CCGGGGTATA", "switch fluorescence ratio": 1.11}, {"sequence": "TGCCCGATAG", "switch fluorescence ratio": 1.02}, {"sequence": "CTAGAATACA", "switch fluorescence ratio": 1.03}, {"sequence": "AAGGCCGTA", "switch fluorescence ratio": 0.971}, {"sequence": "TCTCCTTAG", "switch fluorescence ratio": 1.01}, {"sequence": "CAAGAGTCTT", "switch fluorescence ratio": 0.979}, {"sequence": "TACCTGAACC", "switch fluorescence ratio": 1.19}, {"sequence": "AAACTTGTGG", "switch fluorescence ratio": 1.01}, {"sequence": "TAGGTGCGG", "switch fluorescence ratio": 1.03}, {"sequence": "GGTCTTTGCT", "switch fluorescence ratio": 1.01}, {"sequence": "CGAAATTGTA", "switch fluorescence ratio": 0.976}, {"sequence": "TAACTCGCCT", "switch fluorescence ratio": 1.06}, {"sequence": "ATGAGTCGAA", "switch fluorescence ratio": 0.99}, {"sequence": "TATAGCAGGA", "switch fluorescence ratio": 0.993}, {"sequence": "CTGTGCCCAC", "switch fluorescence ratio": 1.03}, {"sequence": "ACGGGGACGC", "switch fluorescence ratio": 0.959}, {"sequence": "CAATTCAGGC", "switch fluorescence ratio": 0.967}, {"sequence": "AAAAGCCACG", "switch fluorescence ratio": 1.05}, {"sequence": "AGTGGCTTTC", "switch fluorescence ratio": 1.01}, {"sequence": "GATTGACCTC", "switch fluorescence ratio": 0.949}, {"sequence": "TAACATTGTT", "switch fluorescence ratio": 0.989}, {"sequence": "GGAAGGACAG", "switch fluorescence ratio": 1.03}, {"sequence": "GCCCTTTAGA", "switch fluorescence ratio": 1.01}, {"sequence": "AACTGCTCGG", "switch fluorescence ratio": 0.969}, {"sequence": "TAGGCGATGG", "switch fluorescence ratio": 1}, {"sequence": "GGCGCTGACA", "switch fluorescence ratio": 0.976}, {"sequence": "GCAATATAGT", "switch fluorescence ratio": 1.13}, {"sequence": "TCAGTTTGAA", "switch fluorescence ratio": 1}, {"sequence": "AGAGCGGTGA", "switch fluorescence ratio": 0.98}, {"sequence": "TTGGCGGTTT", "switch fluorescence ratio": 1.01}, {"sequence": "TCCGTCAACG", "switch fluorescence ratio": 1.02}, {"sequence": "CGTGTATTTT", "switch fluorescence ratio": 1.02}, {"sequence": "CTTGGACAGC", "switch fluorescence ratio": 1.1}, {"sequence": "TCGTGTTAC", "switch fluorescence ratio": 1.32}, {"sequence": "ATGCATTAG", "switch fluorescence ratio": 1.03}, {"sequence": "TTGCATT", "switch fluorescence ratio": 0.999}, {"sequence": "CTATGTTAGC", "switch fluorescence ratio": 1.01}, {"sequence": "TTGATTACG", "switch fluorescence ratio": 1.06}, {"sequence": "GCTCGATCTC", "switch fluorescence ratio": 0.99}, {"sequence": "TCGCTGTAGA", "switch fluorescence ratio": 1.03}, {"sequence": "GGCCTGGAAT", "switch fluorescence ratio": 1.01}, {"sequence": "TTCTCATGAC", "switch fluorescence ratio": 1.06}, {"sequence": "GGTCCGTATA", "switch fluorescence ratio": 1.1}, {"sequence": "ATGCGGCGTG", "switch fluorescence ratio": 0.931}, {"sequence": "TGCTTTAATG", "switch fluorescence ratio": 0.933}, {"sequence": "GTTTATCGTT", "switch fluorescence ratio": 0.954}, {"sequence": "CGCAGGCTCA", "switch fluorescence ratio": 2.28}, {"sequence": "TTTTAGGG", "switch fluorescence ratio": 1.4}, {"sequence": "GTGCGTGGGC", "switch fluorescence ratio": 1.02}, {"sequence": "TCGGCCACCT", "switch fluorescence ratio": 0.952}, {"sequence": "TCCAGGCCTA", "switch fluorescence ratio": 1.01}, {"sequence": "CGCAGATTTC", "switch fluorescence ratio": 1.19}, {"sequence": "ATGGGCCAT", "switch fluorescence ratio": 0.98}, {"sequence": "TTTTAGAAAA", "switch fluorescence ratio": 0.968}, {"sequence": "ACGGCGGTGG", "switch fluorescence ratio": 0.953}, {"sequence": "TATATGAAGC", "switch fluorescence ratio": 1.05}, {"sequence": "TTTCTAACC", "switch fluorescence ratio": 0.999}, {"sequence": "CTGAACGGTG", "switch fluorescence ratio": 1.09}, {"sequence": "ATGGGGGCTC", "switch fluorescence ratio": 0.982}, {"sequence": "ACCTGCCACC", "switch fluorescence ratio": 1.72}, {"sequence": "AGATCGATGG", "switch fluorescence ratio": 1}, {"sequence": "CAAAGTTATT", "switch fluorescence ratio": 1.02}, {"sequence": "CTCGGACTGT", "switch fluorescence ratio": 1.03}, {"sequence": "CGTTGGGAAT", "switch fluorescence ratio": 0.978}, {"sequence": "CTTTAGGCGG", "switch fluorescence ratio": 0.984}, {"sequence": "TAAGCTAGCT", "switch fluorescence ratio": 0.98}, {"sequence": "CCTGCCAACG", "switch fluorescence ratio": 2.19}, {"sequence": "TCTCTAAGCG", "switch fluorescence ratio": 0.976}, {"sequence": "TCTACGGGCC", "switch fluorescence ratio": 1.04}, {"sequence": "TGGTTACTAT", "switch fluorescence ratio": 1.03}, {"sequence": "TTAGCATCCA", "switch fluorescence ratio": 1.03}, {"sequence": "ACACTGCCG", "switch fluorescence ratio": 1.16}, {"sequence": "CTTACTGTA", "switch fluorescence ratio": 1.15}, {"sequence": "TATGGCATCA", "switch fluorescence ratio": 1.03}, {"sequence": "GGATTGAGAT", "switch fluorescence ratio": 0.956}, {"sequence": "AAAACGTTTT", "switch fluorescence ratio": 0.987}, {"sequence": "ATTCTTTTAG", "switch fluorescence ratio": 0.999}, {"sequence": "TTTTCATATA", "switch fluorescence ratio": 1.02}, {"sequence": "TAATGCGCAT", "switch fluorescence ratio": 1.04}, {"sequence": "ATACTGAGC", "switch fluorescence ratio": 1.03}, {"sequence": "GGGCGGAGAT", "switch fluorescence ratio": 0.996}, {"sequence": "ACCGTCGCGA", "switch fluorescence ratio": 1.35}, {"sequence": "AGCGGGTAAT", "switch fluorescence ratio": 0.947}, {"sequence": "AGAGGTGATC", "switch fluorescence ratio": 0.964}, {"sequence": "CGTAGCTACG", "switch fluorescence ratio": 1.02}, {"sequence": "GTCCTTTACG", "switch fluorescence ratio": 0.983}, {"sequence": "GCTAGTATTT", "switch fluorescence ratio": 0.926}, {"sequence": "TAGCGAACGC", "switch fluorescence ratio": 1.01}, {"sequence": "GATTAGCGTA", "switch fluorescence ratio": 1.04}, {"sequence": "GACCGGGATT", "switch fluorescence ratio": 1.02}, {"sequence": "CCAGCCAATG", "switch fluorescence ratio": 1.23}, {"sequence": "ACTGCACTCC", "switch fluorescence ratio": 1.69}, {"sequence": "TCGGGTGACT", "switch fluorescence ratio": 0.972}, {"sequence": "AAACATCCA", "switch fluorescence ratio": 1.02}, {"sequence": "CTAACGGACC", "switch fluorescence ratio": 1.28}, {"sequence": "AATTTATACG", "switch fluorescence ratio": 1}, {"sequence": "TCGCTAGGCT", "switch fluorescence ratio": 1.17}, {"sequence": "TCCCGACTCT", "switch fluorescence ratio": 1.03}, {"sequence": "ACAGGCTTAT", "switch fluorescence ratio": 0.986}, {"sequence": "ACACCCATCC", "switch fluorescence ratio": 1.35}]}]}
